# In the supplement of paper PMC12230231:
# ± gives the standard deviation of the averaged measurements. Restriction of a single-cycle SIVsab GFP reporter by TRIM5α v1-loop variants in CRFK cells. Human variants: read share among cells still uninfected after two challenges over input, higher = gained restriction. Rhesus variants: share among infected cells over input, higher = lost restriction. Reporter dose not given per row. No active / inactive call per row; the paper calls a change when both replicates lie above its controls (mean + 2 SD of stop or wild-type variants, or the top frameshift score). Residues outside the varied loop are taken from Swiss-Prot. The paper reads the human single-substitution scores as noise; they and the rhesus combinations repeat poorly (rank correlation 0.3 to 0.4), indel scores repeat only for the top variants, rhesus substitutions well (0.9).
# Test system: SIVsab (simian immunodeficiency virus of sabaeus monkeys), single-cycle GFP reporter, in CRFK cells
# Assay: enrichment among uninfected cells over input (fold); higher = stronger restriction
# Protocol: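 Pools of CRFK cells expressing variants of the TRIM5α v1 loop were challenged with the single-cycle reporter, sorted by GFP and sequenced; mean of two replicates.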
# [1] = library: insertions and deletions
# [2] = library: human / rhesus combinations
sequence,measurement,setting,value
"MASGILVNVKEEVTCPICLELLTQPLSLDCGHSFCQACLTANHKKSMLDKGESSCPVCRISYQPENIRPNRHVANIVEKLREVKLSPEGQKVDHCARHGEKLLLFCQEDGKVICWLCERSQEHRGHHTFLTEEVAREYQVKLQAALEMLRQKQQEAEELEADIREEKASWKTQIQYDKTNVLADFEQLRDILDWEESNELQNLEKEEEDILKSLTNSETEMVQQTQSLRELISDLEHRLQGSVMELLQGVDGVIKRTENVTLKKPETFPKNQRRVFRAPDLKGMLEVFRELTDVRRYWVDVTVAPNNISCAVISEDKRQVSSPKPQIIYGARGTRYQTFVNFNQTFVNFNYCTGILGSQSITSGKHYWEVDVSKKTAWILGVCAGFQPDAMCNIEKNENYQPKYGYWVIGLEEGVKCSAFQDSSFHTPSVPFIVPLSVIICPDRVGVFLDYEACTVSFFNITNHGFLIYKFSHCSFSQPVFPYLNPRKCGVPMTLCSPSS [human TRIM5α, 7-codon duplication at 337]",enrichment,[1],0.649 ± 0.57
"MASGILVNVKEEVTCPICLELLTQPLSLDCGHSFCQACLTANHKKSMLDKGESSCPVCRISYQPENIRPNRHVANIVEKLREVKLSPEGQKVDHCARHGEKLLLFCQEDGKVICWLCERSQEHRGHHTFLTEEVAREYQVKLQAALEMLRQKQQEAEELEADIREEKASWKTQIQYDKTNVLADFEQLRDILDWEESNELQNLEKEEEDILKSLTNSETEMVQQTQSLRELISDLEHRLQGSVMELLQGVDGVIKRTENVTLKKPETFPKNQRRVFRAPDLKGMLEVFRELTDVRRYWVDVTVAPNNISCAVISEDKRQVSSPKPQIIYYQTFVNFNYCTGILGSQSITSGKHYWEVDVSKKTAWILGVCAGFQPDAMCNIEKNENYQPKYGYWVIGLEEGVKCSAFQDSSFHTPSVPFIVPLSVIICPDRVGVFLDYEACTVSFFNITNHGFLIYKFSHCSFSQPVFPYLNPRKCGVPMTLCSPSS [human TRIM5α, 6-codon deletion at 330]",enrichment,[1],0.486 ± 0.17
"MASGILVNVKEEVTCPICLELLTQPLSLDCGHSFCQACLTANHKKSMLDKGESSCPVCRISYQPENIRPNRHVANIVEKLREVKLSPEGQKVDHCARHGEKLLLFCQEDGKVICWLCERSQEHRGHHTFLTEEVAREYQVKLQAALEMLRQKQQEAEELEADIREEKASWKTQIQYDKTNVLADFEQLRDILDWEESNELQNLEKEEEDILKSLTNSETEMVQQTQSLRELISDLEHRLQGSVMELLQGVDGVIKRTENVTLKKPETFPKNQRRVFRAPDLKGMLEVFRELTDVRRYWVDVTVAPNNISCAVISEDKRQVSSPKPQIIYGAPGTRFTFQSFTNFNYCTGILGSQSITSGKHYWEVDVSKKTAWILGVCAGFQPDAMCNIEKNENYQPKYGYWVIGLEEGVKCSAFQDSSFHTPSVPFIVPLSVIICPDRVGVFLDYEACTVSFFNITNHGFLIYKFSHCSFSQPVFPYLNPRKCGVPMTLCSPSS [human TRIM5α, 330-340 = GAPGTRFTFQSFT]",enrichment,[2],0.696 ± 0.14
"MASGILVNVKEEVTCPICLELLTQPLSLDCGHSFCQACLTANHKKSMLDKGESSCPVCRISYQPENIRPNRHVANIVEKLREVKLSPEGQKVDHCARHGEKLLLFCQEDGKVICWLCERSQEHRGHHTFLTEEVAREYQVKLQAALEMLRQKQQEAEELEADIREEKASWKTQIQYDKTNVLADFEQLRDILDWEESNELQNLEKEEEDILKSLTNSETEMVQQTQSLRELISDLEHRLQGSVMELLQGVDGVIKRTENVTLKKPETFPKNQRRVFRAPDLKGMLEVFRELTDVRRYWVDVTVAPNNISCAVISEDKRQVSSPKPQIIYQAPGTRFQTLVNFNYCTGILGSQSITSGKHYWEVDVSKKTAWILGVCAGFQPDAMCNIEKNENYQPKYGYWVIGLEEGVKCSAFQDSSFHTPSVPFIVPLSVIICPDRVGVFLDYEACTVSFFNITNHGFLIYKFSHCSFSQPVFPYLNPRKCGVPMTLCSPSS [human TRIM5α, 330-340 = QAPGTRFQTLV]",enrichment,[2],0.00321 ± 0.0032
